From patent publication US9242009B2, “Compositions and methods to treat neurodegenerative diseases” (The General Hospital Corporation, priority 2012, dated 2016)
Where two headings read alike, the source gives them in different places.

Test system: mice subjected to bilateral carotid artery occlusion (BCAO) and reperfusion
Details: for Body temperature: 25 μmol/kg, mice; for Days after BCAO on which neurological score was improved: 25 μmol/kg i.p., P<0.05 vs. vehicle
[1] = 25 μmol/kg i.p. 1 minute after reperfusion, N=12

O=C(O)c1ccc(-c2cssc2=S)cc1 [ACS48, 4-(3-thioxo-3H-1,2-dithiol-4-yl)-benzoic acid]
Number of mice surviving for more than 60 days after BCAO [1]: 1 mice | Survival rate after BCAO (log-rank test) [1]: no significant difference in survival rate | Body temperature: did not affect body temperature

C[C@]12C[C@@H]3C[C@](C)(C1)C[C@@](NC(=O)c1ccc(-c4cssc4=S)cc1)(C3)C2 [S-memantine, N-((1r,3R,5S,7r)-3,5-dimethyladamantan-1-yl)-4-(3-thioxo-3H-1,2-dithiol-4-yl)-benzamide]
Number of mice surviving for more than 60 days after BCAO [1]: 5 mice | Survival rate after BCAO (log-rank test) [1]: markedly higher survival rate | Days after BCAO on which neurological score was improved: 1-4 day | Body temperature: did not affect body temperature | Cerebral infarct volume compared to vehicle (24 hours after BCAO and reperfusion, TTC staining, P<0.001): markedly decreased cerebral infarct volume

CC12CC3CC(C)(C1)CC(N)(C3)C2 [memantine]
Survival rate after BCAO (log-rank test) [1]: no significant difference in survival rate | Days after BCAO on which neurological score was improved: 2-3 day | Number of mice surviving for more than 60 days after BCAO (mouse, in vivo, ip): 2 mice

Sodium sulfide [Na2S]
Brain injury after BCAO (mouse, in vivo): failed to prevent brain injury | Mice that died in 2 days after BCAO (mouse, in vivo, ip): 67% | Survival rate after BCAO (log-rank test) (mouse, in vivo, ip): no significant difference in survival rate | Time in which all treated mice died after BCAO (mouse, in vivo, ip): 10 days
